Reference: a collection of fitness landscapes (doi:10.1016/j.celrep.2020.107928)
Over roughly 81,000 sequences, “one-hybrid fitness for binding NBS DNA” has its median near -0.1; the highest 2% begin near 0.36. Some of the results follow.

B1: Caulobacter ParB omega fusion; a variant is named by its letters at X, in order, B8GW30 (parent)
chain: MESVVVGEPGMSEGRRGLGRGLSALLGEVDAAPAQAPGEQLGGSREAPIEILQRNPDQPRRTFREEDLEDLSNSIREKGVLQPILVRPSPDTAGEYQIVAGERAWRAAQRAGLKTVPIMVRELDDLAVLEIGIIENVQRADLNVLEEALSYKVLMEKFERTQENIAQTIGKSXSHVANXMRLLXLPDEVQSYLVSGELTAXHARAIAAAADPVALAKQIIEGGLSVRETEALARKAPNLSAGKSKGGRPPRVKDTDTQALESDLSSVLGLDVSIDHRGSTGTLTITYATLEQLDDLCNRLTRGI

Variants of: B1
Experiment: one-hybrid fitness for binding NBS DNA (the Noc-binding site; scaled: cognate 1, non-cognate 0); higher = stronger binding
Settings: with NBS DNA site
Summary of the method: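 Fitness is the rescaled log change in variant-to-wild-type read ratio, measured by Illumina sequencing of plasmids before and after bacterial one-hybrid selection. The scale puts cognate at 1 and non-cognate at 0. Selection of Caulobacter ParB libraries, four specificity codons randomised, took place in E. coli USO with a HIS3 reporter, site 19 bp from the promoter, over 48 hours at 37°C on M9-minus-histidine with 0.1 mM IPTG and 5 mM 3-AT.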

Row | Variant | one-hybrid fitness for binding NBS DNA
1 | YFDP | ≤ 0.2
2 | WSMN | ≤ 0.2
3 | VTME | ≤ 0.2
4 | WTIS | ≤ 0.2
5 | PADR | ≤ 0.2
6 | RYRG | ≤ 0.2
7 | MKCG | ≤ 0.2
8 | IFAW | ≤ 0.2
9 | YCMS | ≤ 0.2
10 | KLCS | ≤ 0.2
11 | QWEC | ≤ 0.2
12 | MFRC | ≤ 0.2
13 | TANG | ≤ 0.2
14 | LCTC | ≤ 0.2
15 | EPRT | ≤ 0.2
16 | FECG | ≤ 0.2
17 | GWTR | ≤ 0.2
18 | RWPM | ≤ 0.2
19 | PNIR | ≤ 0.2
20 | VPHS | ≤ 0.2
21 | MPRM | ≤ 0.2
22 | MPTT | ≤ 0.2
23 | QGAW | ≤ 0.2
24 | HRGN | ≤ 0.2
25 | MCNT | ≤ 0.2

Row | Variant | one-hybrid fitness for binding NBS DNA
26 | CQAC | ≤ 0.2
27 | ALCS | ≤ 0.2
28 | YYTR | ≤ 0.2
29 | RLQR | 0.43
30 | SSHF | ≤ 0.2
31 | PTDC | ≤ 0.2
32 | QDLH | ≤ 0.2
33 | LKTM | ≤ 0.2
34 | LGDV | ≤ 0.2
35 | YYQP | ≤ 0.2
36 | GECR | ≤ 0.2
37 | LSQN | ≤ 0.2
38 | FKST | ≤ 0.2
39 | HHTK | ≤ 0.2
40 | HSQT | ≤ 0.2
41 | MIGG | ≤ 0.2
42 | CKQT | ≤ 0.2
43 | FCRR | 0.277
44 | GVIR | ≤ 0.2
45 | VVYS | ≤ 0.2
46 | QRSD | 0.208
47 | DRYS | ≤ 0.2
48 | ERWG | ≤ 0.2
49 | VEGN | ≤ 0.2
50 | WYYG | ≤ 0.2

Row | Variant | one-hybrid fitness for binding NBS DNA
51 | LLAA | ≤ 0.2
52 | HPAV | ≤ 0.2
53 | SNCE | ≤ 0.2
54 | NSTT | ≤ 0.2
55 | DPWI | ≤ 0.2
56 | GYLS | ≤ 0.2
57 | MTHC | ≤ 0.2
58 | VNDC | ≤ 0.2
59 | CPTW | ≤ 0.2
60 | IRKY | 0.221
61 | VVMT | ≤ 0.2
62 | NPYR | ≤ 0.2
63 | AKTY | ≤ 0.2
64 | QGLT | ≤ 0.2
65 | TIIL | ≤ 0.2
66 | HQHH | ≤ 0.2
67 | TERF | ≤ 0.2
68 | NRMF | ≤ 0.2
69 | SLTG | ≤ 0.2
70 | GTQS | ≤ 0.2
71 | YHAR | ≤ 0.2
72 | HVYG | ≤ 0.2
73 | LVAT | ≤ 0.2
74 | FGGN | ≤ 0.2
75 | TLKT | ≤ 0.2

Row | Variant | one-hybrid fitness for binding NBS DNA
76 | ILHF | ≤ 0.2
77 | PDPP | ≤ 0.2
78 | KCST | ≤ 0.2
79 | MCSE | ≤ 0.2
80 | YRDR | ≤ 0.2
81 | LMTK | ≤ 0.2
82 | ESHY | ≤ 0.2
83 | TARY | ≤ 0.2
84 | METE | ≤ 0.2
85 | KKLR | ≤ 0.2
86 | MTDT | ≤ 0.2
87 | MITD | ≤ 0.2
88 | PTYY | ≤ 0.2
89 | QFRY | ≤ 0.2
90 | KWKI | ≤ 0.2
91 | VQNC | ≤ 0.2
92 | HTIG | ≤ 0.2
93 | PHST | ≤ 0.2
94 | PNNM | ≤ 0.2
95 | LDPC | ≤ 0.2
96 | FTCR | ≤ 0.2
97 | VEVR | ≤ 0.2
